These are yes or no findings as the source states them, for the method shown. Binding seen in cells or lysates may run through a third protein. Some entries that bind do so weakly or less than the wild type. For part of these data: Sequences can lack the tags named with a protein.
What was measured:
S-tagged AUP1 = target: T1, S-tagged AUP1 (UniProt Q9Y679); assay: pull-down; S-tagged HCIP transiently expressed in Flp-In293 cells stably expressing the FH-tagged E3; lysates in 1% LMNG; S-protein agarose; western blot
T1 sequence: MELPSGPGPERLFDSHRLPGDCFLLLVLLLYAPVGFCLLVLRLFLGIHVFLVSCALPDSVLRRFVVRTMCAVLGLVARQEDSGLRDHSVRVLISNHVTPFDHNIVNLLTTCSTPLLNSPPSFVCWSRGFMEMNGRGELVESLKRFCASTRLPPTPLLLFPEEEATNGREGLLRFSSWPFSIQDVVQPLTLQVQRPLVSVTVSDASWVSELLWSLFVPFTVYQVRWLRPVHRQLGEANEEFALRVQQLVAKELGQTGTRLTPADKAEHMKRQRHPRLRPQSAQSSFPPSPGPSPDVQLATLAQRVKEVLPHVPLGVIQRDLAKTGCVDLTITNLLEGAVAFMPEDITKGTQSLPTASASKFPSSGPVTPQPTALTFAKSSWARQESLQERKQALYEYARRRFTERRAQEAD

Protein sequences, listed by entry. Tags and fused reporters are not part of them. Lines headed by an entry give the natural chain unless they say otherwise; changes in a name come on top.
UniProt Q9BY78: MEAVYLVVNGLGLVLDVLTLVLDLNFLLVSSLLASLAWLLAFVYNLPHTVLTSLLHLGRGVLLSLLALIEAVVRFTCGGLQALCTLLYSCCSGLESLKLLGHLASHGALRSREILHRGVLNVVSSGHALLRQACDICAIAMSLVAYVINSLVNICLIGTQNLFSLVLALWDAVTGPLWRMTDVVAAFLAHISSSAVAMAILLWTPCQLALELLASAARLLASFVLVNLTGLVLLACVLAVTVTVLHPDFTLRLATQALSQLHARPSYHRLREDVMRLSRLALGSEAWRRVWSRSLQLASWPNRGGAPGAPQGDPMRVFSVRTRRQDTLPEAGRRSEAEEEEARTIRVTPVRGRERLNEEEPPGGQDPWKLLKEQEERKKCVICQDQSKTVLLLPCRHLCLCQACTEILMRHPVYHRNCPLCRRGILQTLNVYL

S-tagged TMEM43 (human) [1] = target: T2, S-tagged TMEM43 (human) (UniProt Q9BTV4); assay: as above
T2 sequence: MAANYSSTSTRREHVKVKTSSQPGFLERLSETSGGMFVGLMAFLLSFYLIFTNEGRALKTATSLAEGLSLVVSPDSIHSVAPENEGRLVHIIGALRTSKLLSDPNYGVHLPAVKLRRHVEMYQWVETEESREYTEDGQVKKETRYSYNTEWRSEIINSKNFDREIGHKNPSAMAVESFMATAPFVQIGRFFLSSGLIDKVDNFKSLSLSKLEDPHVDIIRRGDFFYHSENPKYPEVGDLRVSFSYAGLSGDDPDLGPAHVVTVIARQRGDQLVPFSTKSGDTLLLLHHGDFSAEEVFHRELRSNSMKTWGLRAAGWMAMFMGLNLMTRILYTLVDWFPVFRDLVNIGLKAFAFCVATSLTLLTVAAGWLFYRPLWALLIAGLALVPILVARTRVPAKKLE

S-tagged UBXD8 = target: T3, S-tagged UBXD8 (UniProt Q96CS3); assay: as above
T3 sequence: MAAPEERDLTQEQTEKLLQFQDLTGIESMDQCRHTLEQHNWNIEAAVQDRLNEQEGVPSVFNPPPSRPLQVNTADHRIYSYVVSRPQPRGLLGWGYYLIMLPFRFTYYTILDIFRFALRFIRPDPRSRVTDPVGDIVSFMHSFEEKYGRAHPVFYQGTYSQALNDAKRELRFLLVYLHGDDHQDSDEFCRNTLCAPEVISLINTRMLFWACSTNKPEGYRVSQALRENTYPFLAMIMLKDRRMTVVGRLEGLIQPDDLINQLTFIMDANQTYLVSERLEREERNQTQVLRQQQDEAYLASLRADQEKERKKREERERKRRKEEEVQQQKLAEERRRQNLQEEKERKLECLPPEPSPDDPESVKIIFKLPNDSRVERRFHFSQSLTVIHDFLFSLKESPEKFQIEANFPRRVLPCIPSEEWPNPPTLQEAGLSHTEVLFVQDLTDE

FH-RNF26_(Y432A) (human) = FH-RNF26_(Y432A) (human) (UniProt Q9BY78); assay: co-IP; DOX-induced Flp-In293 cells stably expressing FH-RNF26; anti-FLAG beads; endogenous RNF26 detected by western blot
S-tagged TMEM43 (human) [2] = target: T2, S-tagged TMEM43 (human); assay: pull-down; S-tagged HCIP transiently expressed in FH-RNF26 Y432A Flp-In293 cells; lysates in 1% TX-100; S-protein agarose; western blot (anti-S-tag, anti-HA)

Row | binding (S-tagged AUP1) | binding (S-tagged TMEM43 (human) [1]) | binding (S-tagged UBXD8) | binding (FH-RNF26_(Y432A) (human)) | binding (S-tagged TMEM43 (human) [2]) | Substance
1 | binds | binds | binds | – | – | FH-RNF26WT (from UniProt Q9BY78 1-433) (enzyme)
2 | – | – | – | binds | – | endogenous RNF26 (from UniProt Q9BY78 1-433) (enzyme)
3 | – | binds | – | – | binds | FH-RNF26_(Y432A) (from UniProt Q9BY78 1-433) (enzyme)

— paper PMC7332293
